SMILES strings stand for the structures. Some of the results follow.

The assay deals with HepG2. Description: cytotoxicity call (relative viability < 0.9). The settings on record: 10 µM.
For `C[C@H](CO)N1C[C@H](C)[C@H](CN(C)C(=O)Nc2ccc(C(C)(C)C)cc2)OCc2cnnn2CCCC1=O`, the cytotoxicity call was “inactive”.
With `C[C@H]1CN([C@@H](C)CO)C(=O)Cc2cc(NS(C)(=O)=O)ccc2O[C@@H]1CN(C)C(=O)Nc1ccc(F)cc1` the entry was “inactive”; with `C[C@@H]1CN([C@@H](C)CO)C(=O)Cc2cc(N(C)C)ccc2O[C@@H]1CN(C)S(=O)(=O)c1cn(C)cn1`, “inactive”.
Regarding `O=C(C[C@H]1CC[C@H]2[C@@H](COC[C@@H](O)CN2S(=O)(=O)c2ccc(Cl)cc2)O1)NCC1CCCCC1`, the cytotoxicity call is “inactive”.
To `COc1ccc(NC(=O)Nc2cccc3c2O[C@@H](CN(C)CC2CCCCC2)[C@@H](C)CN([C@H](C)CO)C3=O)cc1` belongs “inactive”.
With `CC(C)(Sc1ccncc1-c1ccc(C#N)c2ccccc12)C(=O)O` the entry was “inactive”; with `CC(=O)NCCCC[C@@H]1NC(=O)[C@H]2C[C@@H](C(=O)O)[C@@H](c3ccc(O)cc3)N2C1=O`, “inactive”; with `C[C@@H]1CCCCO[C@@H](CN(C)CC2CC2)[C@H](C)CN([C@@H](C)CO)C(=O)c2cc(NC(=O)Nc3ccc(C(F)(F)F)cc3)ccc2O1`, “inactive”.
With `C=CCNC(=O)[C@H]1[C@@H]2C(=O)O[C@@H](c3ccccc3)[C@@H](c3ccccc3)N2[C@@H](c2ccc(OCCO)cc2)[C@]12C(=O)Nc1ccc(C#Cc3ccc(OC)cc3)cc12` the entry was “inactive”.
Consider `CN1CCN(C(=O)C[C@@H]2CC[C@H]3[C@@H](COC[C@H](O)CN3CC3CCCC3)O2)CC1`, for which the cytotoxicity call is “inactive”.
With `Cc1noc(C)c1S(=O)(=O)Nc1ccc2c(c1)C(=O)N([C@H](C)CO)C[C@H](C)[C@@H](CN(C)Cc1ccc(Cl)c(Cl)c1)OCCCC[C@H](C)O2` the entry was “inactive”.
As for `CCNC(=O)[C@@H]1[C@@H](CO)[C@@H]2Cn3c(ccc(-c4ccccc4OC)c3=O)[C@@H]2N1S(C)(=O)=O`, the cytotoxicity call is “inactive”.
Consider `O=c1[nH]c(=O)n(C2CC(O)C(CO)O2)cc1F` (centres undefined), for which the cytotoxicity call is “active”.
To `C[C@H](CO)N1C[C@H](C)[C@@H](CN(C)S(C)(=O)=O)Oc2ccc(NC(=O)Nc3ccc(C(F)(F)F)cc3)cc2C1=O` belongs “inactive”; to `O=C(C[C@H]1CC[C@H](NS(=O)(=O)c2ccccc2F)[C@H](CO)O1)NCCCN1CCOCC1`, “inactive”; to `C[C@H]1CN([C@@H](C)CO)C(=O)c2cccc(NC(=O)Nc3ccc(F)cc3)c2O[C@@H]1CN(C)Cc1ccc(Oc2ccccc2)cc1`, “inactive”.
With `Cc1ccc(S(=O)(=O)Nc2ccc3c(c2)CC(=O)N([C@H](C)CO)C[C@H](C)[C@@H](CN(C)C(=O)NC(C)C)O3)cc1` the entry was “inactive”.
On to `C[C@@H]1CN([C@H](C)CO)C(=O)c2c(c3ccccc3n2C)-c2ccccc2CO[C@H]1CN(C)C(=O)Nc1ccc2c(c1)OCO2`, for which the cytotoxicity call was “inactive”.
With `Cc1cccc(/C=C2\CS/C(=C\c3cccc(C)c3)C2=O)c1` the entry was “inactive”; with `COc1ccccc1-c1ccc2c(c1)O[C@H](CN(C)S(=O)(=O)c1ccccc1)[C@@H](C)CN([C@@H](C)CO)S2(=O)=O`, “inactive”.
With `C[C@H](CO)N1C[C@H](C)[C@@H](CN(C)Cc2cccc(C(=O)O)c2)OCc2ccccc2-c2c(n(C)c3ccccc23)C1=O` the entry was “inactive”; with `COc1ccc(S(=O)(=O)N(C)C[C@@H]2Oc3ccc(NC(=O)CCCN(C)C)cc3C(=O)N([C@@H](C)CO)C[C@@H]2C)cc1`, “inactive”; with `C[C@@H]1CCCCO[C@@H](CN(C)C(=O)Cc2ccccc2)[C@H](C)CN([C@H](C)CO)C(=O)c2cc(NC(=O)Cc3ccccc3)ccc2O1`, “inactive”.
With `O=C(NCCCN1CCOCC1)[C@H]1[C@@H]2C=C[C@@]3(CN(Cc4cccs4)C(=O)[C@@H]13)O2`, the cytotoxicity call was “inactive”.
To `NC(=O)c1ncn([C@H]2O[C@@H](COP(=O)(O)O)[C@@H](O)[C@@H]2O)c1N` belongs “inactive”; to `O=C(C1=C[C@@H](c2ccsc2)C[C@@H](OCCCCO)O1)N1CCN(Cc2ccc3c(c2)OCO3)CC1`, “inactive”; to `C[C@H]1CN([C@@H](C)CO)C(=O)c2cc(NC(=O)c3ccncc3)ccc2O[C@@H]1CN(C)C(=O)Nc1ccc2c(c1)OCO2`, “inactive”.
Turning to `CC=Cc1ccc2n(c1=O)C[C@H]1[C@H](CO)[C@@H](C(=O)NC3CCC3)[C@@H]2N1S(=O)(=O)c1cn(C)cn1`, the cytotoxicity call was “inactive”.
For the molecule `COc1ccc(NC(=O)N(C)C[C@H]2Oc3ncc(C#CCN(C)C)cc3C(=O)N([C@@H](C)CO)C[C@H]2C)cc1`, the cytotoxicity call is “inactive”.
As to `C[C@H]1CN([C@@H](C)CO)C(=O)c2cccc(NS(=O)(=O)c3cn(C)cn3)c2O[C@H]1CN(C)S(=O)(=O)c1cccs1`, the cytotoxicity call was “inactive”.
To `CCOC(=O)C1=C(C)N[C@@]2(O)C[C@@H]1[C@H]1CO[C@@H]2O1` belongs “inactive”.
In the case of `C[C@@H]1CN([C@H](C)CO)C(=O)c2ccccc2-c2ccccc2CO[C@@H]1CN(C)Cc1ccc(-c2ccccc2)cc1`, the cytotoxicity call is “inactive”.
With `CC(C)Oc1ccc(S(=O)(=O)N2CCN(c3ccc(-c4ncco4)c(OCC(=O)O)c3)CC2)cc1` the entry was “inactive”.
In the case of `Cc1cc(C)c2c(c1)[C@@H](N(Cc1cc(C(F)(F)F)cc(C(F)(F)F)c1)c1nnn(C)n1)CCCN2C[C@H]1CC[C@H](C(=O)O)CC1`, the cytotoxicity call is “active”.
As to `C[C@H](CO)N1C[C@H](C)[C@@H](CN(C)Cc2ccc(C(F)(F)F)cc2)Oc2ccc(NC(=O)Nc3ccccc3)cc2CC1=O`, the cytotoxicity call was “inactive”.
With `CC(C)NC(=O)N(C)C[C@H]1Oc2cc(C#Cc3cccc(F)c3)ccc2S(=O)(=O)N([C@H](C)CO)C[C@H]1C`, the cytotoxicity call is “inactive”.
For the molecule `Cc1ccc(S(=O)(=O)N(C)C[C@H]2OCCCC[C@@H](C)Oc3ccc(NC(=O)c4ccccc4)cc3C(=O)N([C@H](C)CO)C[C@@H]2C)cc1`, the cytotoxicity call is “inactive”.
With `C[C@H](CO)N1C[C@H](C)[C@H](CN(C)Cc2ccc(C(=O)O)cc2)Oc2c(NC(=O)Nc3cccc4ccccc34)cccc2C1=O` the entry was “inactive”; with `NCc1nc2c([nH]1)CCCC2`, “inactive”.

(Values after the antibiotic and cytotoxicity screens of Wong et al. (2023).)
